{"source": "PubChem BioAssay AID651820", "about": "(National Center for Advancing Translational Sciences (NCATS), 2012)", "note": "Values joined by “and” are separate entries in the source; they are usually repeats but may differ in a detail not shown here. Identical values can stand only once. Out of some 340,000 compounds screened, about 12,000 (3.5%) were called active. Inconclusive results, whose numbers are uncertain, are shown with a selection of clear calls. The call rests on the fitted dose curve; in most records, active means well fitted inhibition curve with a large enough effect; inconclusive means small, poorly fitted or top-dose-only effect, or another doubt; inactive means no such curve, though single readings can be large or run the other way. A potency beside an inconclusive call is a rough fit, not a confirmed value. On the % scale 0 is the no-effect control and ±100 the full control effect; potency means the concentration at half of the fitted maximal effect; tags describe the fitted curve by direction and shape.", "data": [{"test": "qHTS Assay for Inhibitors of Hepatitis C Virus (HCV)", "conditions": "Huh7.5.1 HCVcc-Cre (HCVcc is cell-culture hepatitis C virus) infection, luciferase reporter, 44 h; activity change, negative = inhibition: at 41.8 µM (top of the series) unless noted", "summary_of_the_method": "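A cell-based infection assay in which seeded cells (1,000 per well) receive test compound after 4 h, are inoculated with HCVcc-Cre at approximately 0.5 moi, and are incubated 44 h before luminescence detection.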", "values": [{"smiles": "CC1CN=C(Nc2cccc(S(=O)(=O)N(C)C)c2)S1", "note": "(stereo not drawn)", "Potency": "inconclusive: 8.91 µM [inhibitor, partial curve]"}, {"smiles": "Cc1cc(C(=O)N(C)CC(=O)Nc2cccc(F)c2)no1", "Potency": "inactive"}, {"smiles": "CCCCc1ncc(CN2CCN(Cc3ccc(C)cc3)C(CCO)C2)[nH]1", "note": "(stereo not drawn)", "Potency": "inactive"}, {"smiles": "COc1ccc(C(=O)Cn2nnc(-c3cccs3)n2)cc1", "Potency": "inconclusive: 35.5 µM [inhibitor, single point]"}, {"smiles": "COCCN1C(=O)c2oc3ccccc3c(=O)c2C1c1cccc(O)c1", "note": "(stereo not drawn)", "Potency": "inactive"}, {"smiles": "O=C(CN1CCN(Cc2ccc(F)cc2Cl)CC1)NCc1ccccc1", "Potency": "inconclusive: 14.1 µM [inhibitor, single point]"}, {"smiles": "COc1ccc2c(c1)-c1c(ssc1=S)C(C)(C)N2C(=O)CSC1=NCCS1", "Potency": "active: 10 µM"}, {"smiles": "COc1ccc(CCNC(=O)CNS(=O)(=O)c2ccc(Br)cc2)cc1", "Potency": "inconclusive: 7.94 µM [inhibitor, partial curve]"}, {"smiles": "CC(=O)Cn1cnc2c(cnn2-c2ccc(C)c(C)c2)c1=O", "Potency": "inactive"}, {"smiles": "CC1CCCC(C)N1C(=O)COC(=O)c1cc(S(=O)(=O)N2CCOCC2)ccc1Cl", "note": "(stereo not drawn)", "Potency": "inactive"}, {"smiles": "CC(C)(C)[C@H]1COC(=O)CCC/C=C/C[C@H](CC(=O)N(CCO)Cc2ccccc2)C(=O)N1", "Potency": "inconclusive: 3.98 µM [inhibitor, single point]"}, {"smiles": "CCN1CCN(CCCNC(=O)c2ccc3c(Cl)c4c(nc3c2)CCCC4)CC1", "Potency": "inconclusive: 10 µM [inhibitor, partial curve]"}, {"smiles": "N#C/C(=C(/O)CCl)c1nc2ccccc2[nH]1", "Potency": "inconclusive: 31.6 µM [inhibitor, single point]"}, {"smiles": "COc1ccccc1N1C(C)=CC(=C(C#N)c2nc3ccccc3s2)C=C1C", "Potency": "inconclusive: 7.94 µM [inhibitor, partial curve]"}, {"smiles": "C=CCn1c(SCc2csc(C)n2)nc2scc(-c3ccc(C)o3)c2c1=O", "Potency": "inconclusive: 6.31 µM [inhibitor, full curve, poor fit]"}, {"smiles": "CC(CC(=O)Nc1ccc2c(c1)OCCO2)c1ccccc1", "note": "(stereo not drawn)", "Potency": "inactive"}, {"smiles": "CCOC(=O)N1CCC(Nc2c(N3CCN(c4cc(Cl)ccc4C)CC3)c(=O)c2=O)CC1", "Potency": "active: 10 µM"}, {"smiles": "O=C(Cn1nnc(-c2ccccc2)n1)N/N=C/c1ccc(-c2ccc(Cl)cc2)o1", "Potency": "inconclusive: 14.1 µM [inhibitor, single point]"}, {"smiles": "O=C(NC(Cc1c[nH]c2ccccc12)C(=O)Nc1ccc(OC(F)(F)F)cc1)c1cccs1", "note": "(stereo not drawn)", "Potency": "inconclusive: 31.6 µM [inhibitor, single point]"}, {"smiles": "Cc1cccc(CS(=O)(=O)c2ncc(Cl)c(C(=O)Nc3c(C)cccc3C)n2)c1", "Potency": "active: 6.31 µM"}, {"smiles": "CCCc1cc(=O)oc2cc(C)cc(OCC(=O)NCc3cccnc3)c12", "Potency": "inconclusive: 6.31 µM [inhibitor, full curve, poor fit]"}, {"smiles": "O=C(NNc1ccc(F)cc1)c1c(F)cccc1Cl", "Potency": "inactive"}, {"smiles": "COc1ccc(C)cc1NC(=O)CO/N=C(\\N)CC(=O)Nc1ccccc1OC", "Potency": "inconclusive: 10 µM [inhibitor, partial curve]"}, {"smiles": "COc1ccc(NC(=S)NCc2ccc(S(N)(=O)=O)cc2)c(OC)c1", "Potency": "inconclusive: 3.16 µM [inhibitor, single point]"}, {"smiles": "COc1ccc(S(=O)(=O)N2CCOCC2)cc1NC(=O)CCc1nc2ccccc2c(=O)[nH]1", "Potency": "inactive"}, {"smiles": "Cc1cc(OCCCC(=O)Nc2cccc(-n3cnnn3)c2)ccc1Cl", "Potency": "inconclusive: 22.4 µM [inhibitor, single point]"}, {"smiles": "Cc1ccc2c(c1)c1c(n2CC(O)CNC(C)(C)C)CCCC1", "note": "(stereo not drawn)", "Potency": "inconclusive: 3.55 µM [inhibitor, partial curve]"}, {"smiles": "CCC(C)Nc1nc(N)c([N+](=O)[O-])c(N2CCCCCC2)n1", "note": "(stereo not drawn)", "Potency": "inconclusive: 2.51 µM [inhibitor, partial curve, poor fit]"}, {"smiles": "O=C(Nc1ccc(Cl)c(S(=O)(=O)N2CCOCC2)c1)C1=NN(c2ccccc2)C(=O)CC1", "Potency": "inconclusive: 0.562 µM [inhibitor, full curve, poor fit]"}, {"smiles": "CCCn1c(N2CCN(S(=O)(=O)Cc3ccccc3)CC2)nc2ccccc21", "Potency": "inconclusive: 11.2 µM [inhibitor, partial curve]"}, {"smiles": "O=C(COC(=O)C12CC3CC(CC(Br)(C3)C1)C2)Nc1cccc(S(=O)(=O)N2CCOCC2)c1", "Potency": "inconclusive: 31.6 µM [inhibitor, single point]"}, {"smiles": "CCCCCCN(C(=O)CCCCCN1C(=O)NC(c2ccc([N+](=O)[O-])cc2)C(C(=O)OCc2ccccc2)=C1C)C(C(=O)NCCCC)C1CCCCC1", "note": "(stereo not drawn)", "Potency": "inactive"}, {"smiles": "Nc1nc(CN2CCN(c3ccccn3)CC2)nc(Nc2ccc(F)cc2)n1", "Potency": "inconclusive: 7.94 µM [inhibitor, partial curve, poor fit]"}, {"smiles": "CN(C(=O)c1cccc(NC(=O)Cc2cccc(NC(=O)C3CCCN(C(=O)C4CCCC4)C3)c2)c1)C1CCC1", "note": "(stereo not drawn)", "Potency": "inconclusive: 5.62 µM [inhibitor, single point]"}, {"smiles": "COc1ccc(C(=O)OCc2nc(N)nc(Nc3ccccc3C)n2)cc1OC", "Potency": "inconclusive: 6.31 µM [inhibitor, full curve]"}, {"smiles": "CCCCCCOc1ccc(OC(=O)c2ccncc2)cc1", "Potency": "inconclusive: 3.16 µM [inhibitor, single point]"}, {"smiles": "N#Cc1ccc(S(=O)(=O)N2CCCN(c3nc4ccc(Cl)cc4s3)CC2)cc1", "Potency": "inconclusive: 31.6 µM [inhibitor, single point]"}, {"smiles": "Cc1ccc(-c2cc(=O)c3ccccc3[nH]2)cc1", "Potency": "inconclusive: 31.6 µM [inhibitor, single point]"}, {"smiles": "Cc1cccc2cc(CN(CC3CCCO3)S(=O)(=O)c3ccccc3)c(=O)[nH]c12", "note": "(stereo not drawn)", "Potency": "inconclusive: 11.2 µM [inhibitor, single point]"}, {"smiles": "O=C(NCCN1CCCCC1)c1ccc(Oc2cc(Cl)cc(Cl)c2)o1", "activity change, negative = inhibition": "inconclusive: -72.1% [inhibitor]"}, {"smiles": "Cc1cc(C)c(NC(=O)C2CC3CCC2C3)c(C)c1", "note": "(stereo not drawn)", "Potency": "inactive"}, {"smiles": "Cc1ccc(NC(=O)C2CCCN(S(=O)(=O)c3cccc4cccnc34)C2)cc1", "note": "(stereo not drawn)", "Potency": "inactive"}, {"smiles": "CC(C)C(=O)N1CCN(c2nc(-c3ccc(Cl)cc3)cs2)CC1", "Potency": "inconclusive: 22.4 µM [inhibitor, single point]"}, {"smiles": "Cc1ccc(OC(=O)N2CCOCC2)cc1", "Potency": "inactive"}, {"smiles": "COC(=O)[C@H](CCSC)NC(=O)N1CCN(c2cccc(C(F)(F)F)c2)CC1", "Potency": "inactive"}, {"smiles": "Cc1ccc(N2C(=O)c3ccccc3C(C)(C)C2=O)cc1", "Potency": "inactive"}, {"smiles": "COc1ccc(C(=O)Cc2cc3ccccc3oc2=O)cc1", "Potency": "inactive"}, {"smiles": "COc1ccc(C(=O)Nc2ccc3oc(-c4cccc(F)c4)nc3c2)cc1OC", "Potency": "inconclusive: 2 µM [inhibitor, partial curve]"}, {"smiles": "Cc1nnc(N/N=C/c2ccc(-c3ccc(Br)cc3)o2)n1N", "Potency": "inconclusive: 31.6 µM [inhibitor, single point]"}, {"smiles": "CC(C)(C)n1nnnc1C(c1cccs1)N1CCCc2ccccc21", "note": "(stereo not drawn)", "Potency": "inconclusive: 28.2 µM [inhibitor, single point]"}, {"smiles": "COc1cccc(C(=O)NC2CCCN(C3Cc4ccccc4C3)C2)c1OC", "note": "(stereo not drawn)", "Potency": "inactive"}, {"smiles": "CC(=O)Nc1ccc(NC(=O)COc2cc(O)c3c(c2)OC(C)(C)CC3=O)cc1", "Potency": "inconclusive: 2.82 µM [inhibitor, single point]"}, {"smiles": "COc1cc(-n2c(C)nc3cc(C(=O)NCc4ccco4)ccc32)cc(OC)c1OC", "Potency": "inconclusive: 31.6 µM [inhibitor, single point]"}, {"smiles": "CCOc1cc(NC(=S)Nc2ccccc2)c(OCC)cc1NC(=O)c1ccccc1", "Potency": "inconclusive: 12.6 µM [inhibitor, partial curve]"}, {"smiles": "COc1ccc(CNC(=O)C2CCN(S(=O)(=O)c3ccc4c(c3)CC(C)N4C(=O)C3CC3)CC2)cc1", "note": "(stereo not drawn)", "Potency": "inconclusive: 11.2 µM [inhibitor, single point]"}, {"smiles": "CCOc1ccc(CN(C(=O)c2cc(=O)c3cc(C)cc(C)c3o2)C2CCS(=O)(=O)C2)cc1", "note": "(stereo not drawn)", "Potency": "inconclusive: 31.6 µM [inhibitor, single point]"}, {"smiles": "CCCCn1c(N)c(S(=O)(=O)c2ccc(C)cc2)c2nc3ccccc3nc21", "Potency": "inconclusive: 12.6 µM [inhibitor, partial curve]"}, {"smiles": "O=S(=O)(Cc1ccccc1)Nc1ccc(S(=O)(=O)N2CCCC2)cc1", "Potency": "inactive"}, {"smiles": "O=C(CN1CC[n+]2c(-c3cccs3)csc21)c1ccc(Br)cc1", "Potency": "inactive and inconclusive: 22.4 µM [inhibitor, single point]"}, {"smiles": "COc1ccccc1N(CC(=O)Nc1ccc2c(c1)OCO2)S(=O)(=O)c1ccccc1", "Potency": "inconclusive: 31.6 µM [inhibitor, single point]"}, {"smiles": "CC12CCC(C(=O)N3CCCc4ccccc43)(CC1=O)C2(C)C", "note": "(stereo not drawn)", "Potency": "inconclusive: 10 µM [inhibitor, partial curve]"}, {"smiles": "Cc1ccnc(NC(=O)c2ccc(OCC3CCCO3)cc2)c1", "note": "(stereo not drawn)", "Potency": "inactive"}, {"smiles": "Cc1ccc(S(=O)(=O)NCCC(=O)N2CCCCCCC2)cc1", "Potency": "inactive"}, {"smiles": "CCOc1ccc(S(=O)(=O)N(CC)CC(=O)NCc2ccncc2)cc1C", "Potency": "inactive"}, {"smiles": "COc1cc(CN2CCCC(C(=O)c3ccc4c5c(cccc35)CC4)C2)cc(OC)c1O", "note": "(stereo not drawn)", "Potency": "inconclusive: 6.31 µM [inhibitor, partial curve]"}, {"smiles": "O=C(Nc1cccc(C(=O)N2CCOCC2)c1)c1ccccc1", "Potency": "inactive"}, {"smiles": "COCCn1c(C)cc(C(=O)COC(=O)c2cncc(Br)c2)c1C", "Potency": "inconclusive: 31.6 µM [inhibitor, single point]"}, {"smiles": "Cc1ccc(Nc2nc(N)c([N+](=O)[O-])c(NCCO)n2)cc1C", "Potency": "inconclusive: 25.1 µM [inhibitor, single point]"}]}]}
